Results reported in the supplement of paper PMC9151546.
Single values are uncertain, as repeats are few or missing.

Tested on: CHO-K1
Test: hypodiploid nuclei frequency (% of nucleated events); higher = more hypodiploid events (aneugenic)
Protocol: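 Flow-cytometric in vitro micronucleus assay (Litron MicroFlow) in CHO-K1 cells in 96-well plates, 19 concentrations (4.5-200 µM, n=1 per concentration). Without S9, cells were exposed for 24 h and sampled at 48 h. With Aroclor 1254-induced rat liver S9, cells were exposed for 3-4 h and sampled at 27-28 h. Read-outs are %MN and %hypodiploid nuclei relative to nucleated events, and relative survival as the nuclei-to-bead ratio versus the 1% DMSO vehicle control (x100).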

[1] = concentration: 4.5 (µM), S9 metabolic activation: with S9, exposure time: 3-4 hours
[2] = concentration: 4.5 (µM), S9 metabolic activation: without S9, exposure time: 24 hours
[3] = concentration: 5.63 (µM), S9 metabolic activation: with S9, exposure time: 3-4 hours
[4] = concentration: 5.63 (µM), S9 metabolic activation: without S9, exposure time: 24 hours
[5] = concentration: 7.04 (µM), S9 metabolic activation: with S9, exposure time: 3-4 hours
[6] = concentration: 7.04 (µM), S9 metabolic activation: without S9, exposure time: 24 hours
[7] = concentration: 8.8 (µM), S9 metabolic activation: with S9, exposure time: 3-4 hours
[8] = concentration: 8.8 (µM), S9 metabolic activation: without S9, exposure time: 24 hours
[9] = concentration: 11 (µM), S9 metabolic activation: with S9, exposure time: 3-4 hours
[10] = concentration: 11 (µM), S9 metabolic activation: without S9, exposure time: 24 hours
[11] = concentration: 13.7 (µM), S9 metabolic activation: with S9, exposure time: 3-4 hours
[12] = concentration: 13.7 (µM), S9 metabolic activation: without S9, exposure time: 24 hours
[13] = concentration: 17.2 (µM), S9 metabolic activation: with S9, exposure time: 3-4 hours
[14] = concentration: 17.2 (µM), S9 metabolic activation: without S9, exposure time: 24 hours
[15] = concentration: 21.5 (µM), S9 metabolic activation: with S9, exposure time: 3-4 hours
[16] = concentration: 21.5 (µM), S9 metabolic activation: without S9, exposure time: 24 hours
[17] = concentration: 26.8 (µM), S9 metabolic activation: with S9, exposure time: 3-4 hours
[18] = concentration: 26.8 (µM), S9 metabolic activation: without S9, exposure time: 24 hours
[19] = concentration: 33.6 (µM), S9 metabolic activation: with S9, exposure time: 3-4 hours
[20] = concentration: 33.6 (µM), S9 metabolic activation: without S9, exposure time: 24 hours
[21] = concentration: 41.9 (µM), S9 metabolic activation: with S9, exposure time: 3-4 hours
[22] = concentration: 41.9 (µM), S9 metabolic activation: without S9, exposure time: 24 hours
[23] = concentration: 52.4 (µM), S9 metabolic activation: with S9, exposure time: 3-4 hours
[24] = concentration: 52.4 (µM), S9 metabolic activation: without S9, exposure time: 24 hours
[25] = concentration: 65.5 (µM), S9 metabolic activation: with S9, exposure time: 3-4 hours
[26] = concentration: 65.5 (µM), S9 metabolic activation: without S9, exposure time: 24 hours
[27] = concentration: 81.9 (µM), S9 metabolic activation: with S9, exposure time: 3-4 hours
[28] = concentration: 81.9 (µM), S9 metabolic activation: without S9, exposure time: 24 hours
[29] = concentration: 102 (µM), S9 metabolic activation: with S9, exposure time: 3-4 hours
[30] = concentration: 102 (µM), S9 metabolic activation: without S9, exposure time: 24 hours
[31] = concentration: 128 (µM), S9 metabolic activation: with S9, exposure time: 3-4 hours
[32] = concentration: 128 (µM), S9 metabolic activation: without S9, exposure time: 24 hours
[33] = concentration: 160 (µM), S9 metabolic activation: with S9, exposure time: 3-4 hours
[34] = concentration: 160 (µM), S9 metabolic activation: without S9, exposure time: 24 hours
[35] = concentration: 200 (µM), S9 metabolic activation: with S9, exposure time: 3-4 hours
[36] = concentration: 200 (µM), S9 metabolic activation: without S9, exposure time: 24 hours
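Further: hypodiploid nuclei gated on a flow cytometer with 488 nm excitation after SYTOX Green staining, cultures at 37 °C, positive controls vinblastine without S9 and cyclophosphamide with S9.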

SMILES | hypodiploid nuclei frequency [1] [%] | hypodiploid nuclei frequency [2] [%] | hypodiploid nuclei frequency [3] [%] | hypodiploid nuclei frequency [4] [%] | hypodiploid nuclei frequency [5] [%] | hypodiploid nuclei frequency [6] [%] | hypodiploid nuclei frequency [7] [%] | hypodiploid nuclei frequency [8] [%] | hypodiploid nuclei frequency [9] [%] | hypodiploid nuclei frequency [10] [%] | hypodiploid nuclei frequency [11] [%] | hypodiploid nuclei frequency [12] [%] | hypodiploid nuclei frequency [13] [%] | hypodiploid nuclei frequency [14] [%] | hypodiploid nuclei frequency [15] [%] | hypodiploid nuclei frequency [16] [%] | hypodiploid nuclei frequency [17] [%] | hypodiploid nuclei frequency [18] [%] | hypodiploid nuclei frequency [19] [%] | hypodiploid nuclei frequency [20] [%] | hypodiploid nuclei frequency [21] [%] | hypodiploid nuclei frequency [22] [%] | hypodiploid nuclei frequency [23] [%] | hypodiploid nuclei frequency [24] [%] | hypodiploid nuclei frequency [25] [%] | hypodiploid nuclei frequency [26] [%] | hypodiploid nuclei frequency [27] [%] | hypodiploid nuclei frequency [28] [%] | hypodiploid nuclei frequency [29] [%] | hypodiploid nuclei frequency [30] [%] | hypodiploid nuclei frequency [31] [%] | hypodiploid nuclei frequency [32] [%] | hypodiploid nuclei frequency [33] [%] | hypodiploid nuclei frequency [34] [%] | hypodiploid nuclei frequency [35] [%] | hypodiploid nuclei frequency [36] [%]
Cc1cn([C@H]2C[C@H](N=[N+]=[N-])[C@@H](CO)O2)c(=O)[nH]c1=O [3'-Azido-3'-deoxythymidine] | 0.12 | 0.58 | 0.16 | 0.62 | 0.18 | 0.64 | 0.18 | 0.68 | 0.18 | 1 | 0.28 | 0.82 | 0.18 | 0.68 | 0.1 | 0.94 | 0.1 | 0.74 | 0.12 | 0.9 | 0.16 | 0.62 | 0.16 | 0.88 | 0.14 | 1.06 | 0.08 | 1.16 | 0.16 | 1.06 | 0.16 | 1.08 | 0.28 | 1.08 | 0.08 | 1.8
C=CC(N)=O [Acrylamide] | 0.26 | 0.44 | 0.06 | 0.5 | 0.14 | 0.34 | 0.2 | 0.46 | 0.08 | 0.56 | 0.18 | 0.48 | 0.16 | 0.46 | 0.26 | 0.76 | 0.24 | 0.78 | 0.22 | 0.5 | 0.32 | 0.7 | 0.64 | 0.48 | 0.26 | 0.98 | 0.18 | 1.02 | 0.4 | 1.24 | 0.32 | 1.64 | 0.38 | 1.42 | 0.22 | 1.5
